Among all 48,000 compounds or so, about 120 (0.25%) were called active. Roughly 4% stayed inconclusive and do not appear here. The call rests on the fitted dose curve; in most records, active means well fitted activation curve with a large enough effect; inconclusive means small, poorly fitted or top-dose-only effect, or another doubt; inactive means no such curve, though single readings can be large or run the other way. Some of the results follow.
Assay: Primary qHTS for Identification of Small Molecule Activators of Huntingtin-Antisense Promoter Activity; further: nearly all actives have a fitted effect of over 55% in size
Details: HEK293 HTT-AS promoter firefly luciferase reporter (activity 0% = vehicle and -100% = no light), 24 h; series mostly up to 57.5 µM; activity change, positive = activation: at the top concentration
Method in brief: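 Firefly luciferase readout (Dual-Glo, 10 min RT) after 24 h, 37 °C compound exposure (final up to 57.5 uM) of HEK293 reporter cells cultured 24 h beforehand; PTC124 at 50 uM final as control inhibitor; activity scaled vehicle 0%, zero RLU -100%.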

Activity change, positive = activation, inactive:
CN(C(=O)c1cc2c(Cl)nc3ccccc3c2s1)c1cccc(C(F)(F)F)c1 -17.5%, O=C(Cn1nc(-c2ccccc2)c2c(c1=O)CCCC2)Nc1ccc(F)c(Cl)c1 -28.9%, COc1cccc(-c2noc(COc3ccc(C(C)(C)C)cc3)n2)c1 23.8%, Cc1ccccc1NS(=O)(=O)c1ccc2[nH]cc(C(=O)NC3CCCCC3)c(=O)c2c1 -32.9%, Cc1ccc(NC(=O)c2oc3ccc(S(=O)(=O)N4CCCCCC4)cc3c2C)c(C)c1 0%, CCn1c(=O)c2cc(C(=O)NC3CCC(C)CC3)sc2c2ccccc21 (stereo not given) -16.4%, Cc1ccc(CCNC(=O)CN(c2cc(C)cc(C)c2)S(=O)(=O)c2c(C)noc2C)cc1 -15.7%, COc1ccccc1CNC(=O)CCCn1c(=O)c2ccccc2n(Cc2ccc(F)cc2)c1=O -32.2%, COc1ccccc1Nc1nc(-c2ccc(F)cc2)c2c(n1)-c1ccccc1OC2 -6.13%, COc1ccccc1NC(=O)c1c(C)cc(C)nc1SCC(=O)Nc1ccc(C)c(C)c1 -28.8%, COc1cccc(-n2ccn(CC(=O)NCc3ccc(C)cc3)c(=O)c2=O)c1 -4.99%, Cc1cc(C)c(NS(=O)(=O)c2ccc3c(c2)CC(C)N3C(=O)C2CCC2)c(C)c1 (stereo not given) -33.4%, CCOc1ccc(C2CC(=O)NC(NC(=O)c3cccc(Cl)c3)=N2)cc1 (stereo not given) -7.91%, Cc1ccc(Nc2ccc3cc(S(=O)(=O)N4CCCCC4)ccc3n2)cc1F -21.5%, COc1ccc(C)cc1NC(=O)Cn1c(=O)oc2cc(S(=O)(=O)N3CCCCC3)ccc21 -36.2%, CCOC(=O)c1ccc(NC(=O)CSc2nc(-c3ccc(OC)cc3)cc(C(F)(F)F)c2C#N)cc1 -6.83%, CCn1cc2nc(SCC(=O)Nc3ccc(OC)c(Cl)c3)n(Cc3ccc(OC)cc3)c(=O)c2n1 -28.6%, CC(C)c1noc(N2CCC(COc3ccc(-c4ccc(S(C)(=O)=O)cc4)nc3)CC2)n1 -17.6%, O=C(Cc1ccccc1)N(Cc1cccnc1)c1nc2c(Cl)cccc2s1 -25.5%, COc1ccc(N(CC(=O)N2CCN(c3ccccc3)CC2)S(=O)(=O)c2c(C)nn(C)c2C)cc1 -4.04%, COc1ccc(-c2cc3nc(C)c(CCC(=O)NCc4ccccc4Cl)c(C)n3n2)c(OC)c1 -25.1%, CC(=O)c1ccc(NC(=O)c2cn(-c3ccccc3)nc2-c2ccc(Br)cc2)cc1 -13.3%, O=C(CCC1CCCC1)N1CCc2c([nH]c3ccccc23)C1c1ccc(F)cc1 (stereo not given) -34.3%, CCc1nnc(SC(CC)C(=O)Nc2ccc(OC)c(Cl)c2)c2cc3occc3n12 (stereo not given) -34.5%, N#Cc1nc(COc2ccccc2Cl)oc1NCCc1ccccc1 2.37%, CCc1cccc(C)c1NC(=O)C1CCN(S(=O)(=O)c2c(C)noc2/C=C/c2c(C)cc(C)cc2C)CC1 14.8%, CCOc1ccc(NC(=O)NCCN2CCN(c3cccc(C)c3C)CC2)cc1 -21.3%, CC(=O)n1nc(-c2cccnc2)nc1NCc1ccc(F)cc1 8.06%, O=C1c2oc3ccccc3c(=O)c2C(c2ccc(O)cc2)N1Cc1ccc2c(c1)OCO2 (stereo not given) -16.4%, O=C(c1ccc(Cl)cc1)N1CCC(c2nc3ccccc3o2)CC1 -21.2%, CCOc1ccc(NC(=O)c2c(NCc3ccc(C)o3)sc3c2CCCCC3)cc1 -9.06%, CCn1cc(C(=O)OCC(=O)Nc2cc(OC)cc(OC)c2)c(=O)c2ccc(C)nc21 -11.7%, Cc1ccc(CNC(=O)CN2C(=O)CSc3ccc(S(=O)(=O)N(C)C)cc32)cc1 -4.5%, Cc1ccc(CSC2=Nc3ccccc3C3=NC(CC(=O)NCc4cccs4)C(=O)N23)c(C)c1 (stereo not given) 6.67%, CCCCNS(=O)(=O)c1ccc(N2CCCCS2(=O)=O)cc1 -18.4%, O=C(Nc1ccc2nc(SCCOc3ccccc3)sc2c1)c1ccccc1F 4.58%, CCOC(=O)c1c(C)c(-c2ccccc2)n(CC(=O)Nc2ccc(OCC)cc2)c1C -2.96%, COc1ccc(-c2cn3c(n2)sc2cc(C(=O)Nc4cccc(SC)c4)ccc23)cc1 -3.33%, CCc1ccc(N(CC)C(=O)CCn2cnc3onc(-c4ccc(F)cc4)c3c2=O)cc1 -39%, COc1ccccc1-c1noc(-c2ccc(N3CCN(C)CC3)c([N+](=O)[O-])c2)n1 -27.3%, Cc1ccc(-c2ccc(=O)n(CC(=O)NCCc3ccc(Cl)cc3)n2)cc1 -12.3%, COC(=O)C(CCSC)NC(=O)Cn1ncc2c([nH]c3ccccc32)c1=O (stereo not given) -5.03%, COc1ccc(NC(=O)c2c(NCc3cccs3)sc3c2CCCC3)c(OC)c1 -24.3%, CCCOc1ccc(CNC(=O)c2ccc3c(c2)N(Cc2ccccc2)CCS3)cc1 -25.9%, COc1cccc2c1cc1c(=O)n(CC(=O)N3CCN(c4cccc(Cl)c4)CC3)nc(C)n12 0.294%, Cc1ccc(CNC(=O)CN2C(=O)CSc3c2c(C)nn3-c2ccccc2)cc1 -0.714%, COc1ccc(NC(=O)c2oc3ccccc3c2NC(=O)Cc2coc3cc(C)ccc23)cc1 28.2%, COc1ccc(C)cc1NC(=O)CCNC(=O)Cn1ccc2ccccc2c1=O 7.79%, CN1C(=O)Cc2cc(S(=O)(=O)CCC(=O)Nc3ccc(Cl)c(C(F)(F)F)c3)ccc21 -19.7%, COCCCn1c(=N)c(C(=O)NCc2cccnc2)cc2c(=O)n3cccc(C)c3nc21 -16.4%, CCOC(=O)c1c(C)[nH]c(CCC(=O)NCc2cccc(C)c2)c1C -10.2%, COc1ccc(C2=C(C)C(=NCCCN3CCN(c4cc(Cl)ccc4C)CC3)NS2(=O)=O)cc1 -40.5%, Cc1ccc(NC(=O)Cn2cc(S(=O)(=O)Cc3cccc(Cl)c3)c3ccccc32)cc1C -28.8%, COc1ccc(-n2ncc(C(=O)Nc3ccc4c(c3)OCO4)c2C2CCN(C(=O)OC(C)(C)C)CC2)cc1 8.26%, COc1ccc2oc(-c3ccc(C)c(NC(=O)c4ccc5c(c4)OCCO5)c3)nc2c1 3.21%, Cn1c(-c2ccccc2)cnc1NCc1ccccc1O -2.83%, O=C(NCc1ccccc1Br)c1ccc2c(c1)nc1n2CCOC1 3.83%, O=C(CCC1N=C2c3ccccc3N=C(SCc3ccccc3F)N2C1=O)NCc1ccccc1 (stereo not given) 28.5%, CCCNC(=O)COCc1cc(-c2ccc(F)cc2)on1 -1.44%, Cc1cc(OCC(=O)Nc2c(C(=O)c3ccccc3)oc3ccccc23)cc(C)c1Cl 6.68%

Reference: PubChem BioAssay AID1508624 (National Center for Advancing Translational Sciences (NCATS), 2021)
